From patent US20040229274A1 (Johns Hopkins, published 2004)

Biological target: T1, native mGluR5 in detergent extracts of rat hippocampus (rat, UniProt P31424 21-1203, limits assumed)
T1 construct: domain: native protein in detergent extract of hippocampus; About 140 kDa band, doublet in hippocampus; also called type 5 metabotropic glutamate receptor
Assay: GST affinity column loaded with hippocampal extract, immunoblot for mGluR5
Procedure: For example, the bacterially expressed GST-Homer fusion protein was tested for binding to native mGluR5 in detergent extracts of hippocampus in an in vitro binding assay as detailed in Example 7A.

T1 sequence (P31424 21-1203 limits assumed): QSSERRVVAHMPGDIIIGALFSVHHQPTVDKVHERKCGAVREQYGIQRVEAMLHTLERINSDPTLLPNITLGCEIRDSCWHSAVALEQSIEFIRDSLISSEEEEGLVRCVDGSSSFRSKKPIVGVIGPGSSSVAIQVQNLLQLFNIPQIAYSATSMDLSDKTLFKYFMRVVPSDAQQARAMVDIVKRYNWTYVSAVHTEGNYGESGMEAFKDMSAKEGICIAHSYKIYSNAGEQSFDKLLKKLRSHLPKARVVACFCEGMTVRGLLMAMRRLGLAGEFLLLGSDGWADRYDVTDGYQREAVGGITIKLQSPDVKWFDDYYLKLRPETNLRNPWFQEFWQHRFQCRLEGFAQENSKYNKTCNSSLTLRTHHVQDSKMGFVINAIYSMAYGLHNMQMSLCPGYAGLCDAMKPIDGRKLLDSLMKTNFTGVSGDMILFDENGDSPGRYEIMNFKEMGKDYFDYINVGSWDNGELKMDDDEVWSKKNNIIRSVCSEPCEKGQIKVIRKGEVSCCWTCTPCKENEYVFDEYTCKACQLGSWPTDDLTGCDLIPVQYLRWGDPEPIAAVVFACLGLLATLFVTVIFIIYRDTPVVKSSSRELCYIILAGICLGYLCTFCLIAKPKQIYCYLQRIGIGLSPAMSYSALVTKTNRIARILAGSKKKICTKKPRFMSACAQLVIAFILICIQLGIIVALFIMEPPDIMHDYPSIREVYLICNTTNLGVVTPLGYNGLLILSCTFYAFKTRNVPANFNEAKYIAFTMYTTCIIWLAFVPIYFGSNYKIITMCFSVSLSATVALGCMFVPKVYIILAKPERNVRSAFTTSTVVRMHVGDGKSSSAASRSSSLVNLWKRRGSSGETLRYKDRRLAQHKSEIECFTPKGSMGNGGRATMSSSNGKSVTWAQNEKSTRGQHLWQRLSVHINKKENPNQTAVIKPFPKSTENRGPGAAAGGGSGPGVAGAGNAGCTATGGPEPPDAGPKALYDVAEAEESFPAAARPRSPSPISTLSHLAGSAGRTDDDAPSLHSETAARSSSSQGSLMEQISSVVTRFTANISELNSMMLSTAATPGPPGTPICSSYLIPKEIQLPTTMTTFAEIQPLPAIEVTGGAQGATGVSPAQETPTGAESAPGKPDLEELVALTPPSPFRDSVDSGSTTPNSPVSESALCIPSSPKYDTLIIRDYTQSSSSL

B1: GST alone (other)
chain: not shown
notes: Control for GST-Homer
binding result: no binding
